Results reported in the supplement of paper PMC10369915.
The list shows a part of the results. Cut-off read from the data, not from the text of the source: active = 3.2 or more and inactive = the rest. Most of these values are background signal.

What follows are binders tested against SHP2 C-SH2 domain E139D (assay: enrichment score (SH2-bound / input frequency) (ratio); bacterial display of known human phosphotyrosine sites (pTyr-Var adds point mutants) read by sequencing; higher = stronger binding; tyrosines were phosphorylated by kinases first). Conditions: peptide library: pTyr-Var.
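Note: displayed peptides selected on beads carrying the immobilized SH2 domain, with library peptides lacking any tyrosine serving as negative controls.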

Enrichment score, inactive:
KLQQWYREPRS [GPI_Y17_H20P] 0.471
HRFAAYFQQGD [GPI_Y351] 1.92
HHFAAYFQQGD [GPI_Y351_R347H] 1.89
GAAMLYYPSVS [GPR143_Y177] 1.05
GRQGIYTENKR [GPR143_Y231_E235K] 0.694
GRQVIYTENER [GPR143_Y231_G229V] 0.647
KDKLPYPYDDP [GPX2_Y125] 0.562
SVSVNYGDQVQ [GRAP_Y101] 0.649
LIDSSYLTPTA [GREB1L_Y1063_R1066P] 0.759
PLYRKYWPNHI [GREB1L_Y1560] 1.15
QRVLLYVRRET [GRHL3_Y518] 0.254
EGNEQYEGFCV [GRIA3_Y451_R450Q_YF] 0.563
EKMWTYMRSAE [GRIA4_Y695] 1.19
SNMPSYSGHFT [GRIN2A_Y1224_T1223S] 0.816
RMGNLYDIDEN [GRIN2A_Y1246_D1251N] 1.07
GHNDVYISEHV [GRIN2A_Y1423] 0.913
KHVMPYAANKN [GRIN2A_Y1431_E1426K] 1.59
LDAFIYDAALL [GRIN2A_Y730_V734L] 0.849
DNLSNYVFQGQ [GRIN2A_Y978_N976S] 0.866

The binders below were run against SHP2 C-SH2 domain wild-type in the same assay as above. Conditions: peptide library: pTyr-Var.

Enrichment score, inactive:
KLQQWYREPRS [GPI_Y17_H20P] 0.519
HRFAAYFQQGD [GPI_Y351] 1.74
HHFAAYFQQGD [GPI_Y351_R347H] 1.81
GAAMLYYPSVS [GPR143_Y177] 0.834
GRQGIYTENKR [GPR143_Y231_E235K] 0.66
GRQVIYTENER [GPR143_Y231_G229V] 0.759
KDKLPYPYDDP [GPX2_Y125] 0.57
SVSVNYGDQVQ [GRAP_Y101] 0.733
LIDSSYLTPTA [GREB1L_Y1063_R1066P] 1.2
PLYRKYWPNHI [GREB1L_Y1560] 0.735
QRVLLYVRRET [GRHL3_Y518] 0.306
EGNEQYEGFCV [GRIA3_Y451_R450Q_YF] 0.494
EKMWTYMRSAE [GRIA4_Y695] 0.87
SNMPSYSGHFT [GRIN2A_Y1224_T1223S] 0.658
RMGNLYDIDEN [GRIN2A_Y1246_D1251N] 1.41
GHNDVYISEHV [GRIN2A_Y1423] 0.682
KHVMPYAANKN [GRIN2A_Y1431_E1426K] 1.45
LDAFIYDAALL [GRIN2A_Y730_V734L] 0.959
DNLSNYVFQGQ [GRIN2A_Y978_N976S] 0.817

What follows are binders tested against SHP2 N-SH2 domain L43F in the same assay as above. Conditions: peptide library: pTyr-Var.

Enrichment score, inactive:
KLQQWYREPRS [GPI_Y17_H20P] 0.486
HRFAAYFQQGD [GPI_Y351] 2.1
HHFAAYFQQGD [GPI_Y351_R347H] 2.19
GAAMLYYPSVS [GPR143_Y177] 1.03
GRQGIYTENKR [GPR143_Y231_E235K] 0.678
GRQVIYTENER [GPR143_Y231_G229V] 0.629
KDKLPYPYDDP [GPX2_Y125] 0.651
SVSVNYGDQVQ [GRAP_Y101] 0.758
LIDSSYLTPTA [GREB1L_Y1063_R1066P] 1.3
PLYRKYWPNHI [GREB1L_Y1560] 0.943
QRVLLYVRRET [GRHL3_Y518] 0.177
EGNEQYEGFCV [GRIA3_Y451_R450Q_YF] 0.69
EKMWTYMRSAE [GRIA4_Y695] 0.879
SNMPSYSGHFT [GRIN2A_Y1224_T1223S] 0.678
RMGNLYDIDEN [GRIN2A_Y1246_D1251N] 1.34
GHNDVYISEHV [GRIN2A_Y1423] 1.05
KHVMPYAANKN [GRIN2A_Y1431_E1426K] 1.42
LDAFIYDAALL [GRIN2A_Y730_V734L] 0.855
DNLSNYVFQGQ [GRIN2A_Y978_N976S] 0.726

Each binder was assayed against SHP2 N-SH2 domain T42A in the same assay as above. Conditions: peptide library: pTyr-Var.

Enrichment score, inactive:
KLQQWYREPRS [GPI_Y17_H20P] 0.339
HRFAAYFQQGD [GPI_Y351] 1.61
HHFAAYFQQGD [GPI_Y351_R347H] 2.19
GAAMLYYPSVS [GPR143_Y177] 0.815
GRQGIYTENKR [GPR143_Y231_E235K] 0.458
GRQVIYTENER [GPR143_Y231_G229V] 0.682
KDKLPYPYDDP [GPX2_Y125] 0.581
SVSVNYGDQVQ [GRAP_Y101] 0.747
LIDSSYLTPTA [GREB1L_Y1063_R1066P] 1.27
PLYRKYWPNHI [GREB1L_Y1560] 0.792
QRVLLYVRRET [GRHL3_Y518] 0.118
EGNEQYEGFCV [GRIA3_Y451_R450Q_YF] 0.486
EKMWTYMRSAE [GRIA4_Y695] 0.992
SNMPSYSGHFT [GRIN2A_Y1224_T1223S] 0.825
RMGNLYDIDEN [GRIN2A_Y1246_D1251N] 1.05
GHNDVYISEHV [GRIN2A_Y1423] 0.618
KHVMPYAANKN [GRIN2A_Y1431_E1426K] 1.14
LDAFIYDAALL [GRIN2A_Y730_V734L] 1.08
DNLSNYVFQGQ [GRIN2A_Y978_N976S] 0.613

Each binder was assayed against SHP2 N-SH2 domain T52S in the same assay as above. Conditions: peptide library: pTyr-Var.

Enrichment score, inactive:
KLQQWYREPRS [GPI_Y17_H20P] 0.609
HRFAAYFQQGD [GPI_Y351] 1.56
HHFAAYFQQGD [GPI_Y351_R347H] 1.96
GAAMLYYPSVS [GPR143_Y177] 1.03
GRQGIYTENKR [GPR143_Y231_E235K] 0.574
GRQVIYTENER [GPR143_Y231_G229V] 0.614
KDKLPYPYDDP [GPX2_Y125] 0.626
SVSVNYGDQVQ [GRAP_Y101] 1.02
LIDSSYLTPTA [GREB1L_Y1063_R1066P] 1.2
PLYRKYWPNHI [GREB1L_Y1560] 1.13
QRVLLYVRRET [GRHL3_Y518] 0.209
EGNEQYEGFCV [GRIA3_Y451_R450Q_YF] 0.587
EKMWTYMRSAE [GRIA4_Y695] 1.02
SNMPSYSGHFT [GRIN2A_Y1224_T1223S] 0.803
RMGNLYDIDEN [GRIN2A_Y1246_D1251N] 0.797
GHNDVYISEHV [GRIN2A_Y1423] 0.725
KHVMPYAANKN [GRIN2A_Y1431_E1426K] 1.73
LDAFIYDAALL [GRIN2A_Y730_V734L] 0.863
DNLSNYVFQGQ [GRIN2A_Y978_N976S] 1.03

The binders below were run against SHP2 N-SH2 domain wild-type in the same assay as above. Conditions: peptide library: pTyr-Var.

Enrichment score, inactive:
KLQQWYREPRS [GPI_Y17_H20P] 0.478
HRFAAYFQQGD [GPI_Y351] 1.85
HHFAAYFQQGD [GPI_Y351_R347H] 1.82
GAAMLYYPSVS [GPR143_Y177] 1.16
GRQGIYTENKR [GPR143_Y231_E235K] 0.597
GRQVIYTENER [GPR143_Y231_G229V] 0.759
KDKLPYPYDDP [GPX2_Y125] 0.709
SVSVNYGDQVQ [GRAP_Y101] 0.995
LIDSSYLTPTA [GREB1L_Y1063_R1066P] 1.18
PLYRKYWPNHI [GREB1L_Y1560] 0.967
QRVLLYVRRET [GRHL3_Y518] 0.192
EGNEQYEGFCV [GRIA3_Y451_R450Q_YF] 0.692
EKMWTYMRSAE [GRIA4_Y695] 1.01
SNMPSYSGHFT [GRIN2A_Y1224_T1223S] 0.815
RMGNLYDIDEN [GRIN2A_Y1246_D1251N] 1.5
GHNDVYISEHV [GRIN2A_Y1423] 0.921
KHVMPYAANKN [GRIN2A_Y1431_E1426K] 1.3
LDAFIYDAALL [GRIN2A_Y730_V734L] 0.848
DNLSNYVFQGQ [GRIN2A_Y978_N976S] 0.738
